# Measured values reported in PubChem BioAssay (NCATS).
# Several values for one entry are separate records, joined by “and”; a condition that tells them apart may be missing. Equal values may be shown once. Inconclusive means that the source gave no clear call. Such entries were picked first, then a sample of the others. A potency beside an inconclusive call is a rough fit, not a confirmed value. Activity calls are given as the source filed them. Calls follow the shape of the dose curve; as a rule, active = well fitted inhibition curve with a large enough effect; inconclusive = small, poorly fitted or top-dose-only effect; inactive = flat fitted curve, though single readings scatter.
# Assay: qHTS for Inhibitors of Plasmodium falciparum (HB3) proliferation (AID 504318); also: nearly all actives have a fitted effect of over 60% in size;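 as to activity change, negative = inhibition: 0% = DMSO vehicle and -100% = artemisinin control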
# Conditions: P. falciparum HB3 in erythrocytes, SYBR Green DNA, 72 h; activity change, negative = inhibition: at 7.21 µM (top of the series)
# In short: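 Erythrocytes infected with P. falciparum line (0.3% parasitemia, 2.5% hematocrit final) incubated with compounds 72 h at 37 °C, 5% CO2; SYBR Green lysis buffer added, fluorescence read next day. Normalized to 0.29 uM artemisinin and DMSO.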
# Potency is read from the fitted curve at half-maximal effect; tags tell the direction and shape of the fitted curve.
SMILES,"activity change, negative = inhibition",Potency
COC(=O)[C@H](Cc1ccccc1)NC(=O)O[C@@H]1C(=O)c2cc(Br)ccc2O[C@H]1c1ccc2c(c1)OCO2,inactive: -10.2%,
COC(=O)CCCC1=CC2=C(c3ccccc3)C(=O)C(C)(OC(=O)C3CCCC3)C(=O)C2=CN1C1CCCC1 (stereo not given),,"inconclusive: 2.13 µM [inhibitor, single point]"
C#CCN1C(=O)C2(CC(C)=C[C@@H](C)O2)c2c(Br)cccc21 (stereo not given in full),,"inconclusive: 1.07 µM [inhibitor, partial curve]"
C=C(C)C(=O)OC[C@@H]1CN2[C@H](c3ccc(Br)cc3)[C@H](C)CC[C@H]2C(=O)O1,inactive: 2.01%,
COCCN1C(=O)CC[C@@]23C1=NC(C(=O)OC)=C(C(=O)OC)[C@@H]2N(Cc1ccccc1)c1ccccc13,,"inconclusive: 2.62 µM [inhibitor, partial curve, poor fit]"
COC(=O)C1=C(C(=O)OC)[C@@H]2Nc3ccccc3[C@@]23C[C@@H](C(=O)OC)N(C(=O)Nc2ccccc2F)C3=N1,,"inconclusive: 0.269 µM [inhibitor, partial curve, poor fit]"
CCOC(=O)CCN1C(=O)[C@@H]2[C@H]3[C@H](O)[C@H](O)CC(=NNC(=O)OCc4ccccc4)[C@H]3CC[C@H]2C1=O,inactive: -4.75%,
CCCC[C@@H]1CN2[C@@H](CC[C@H](C)[C@@H]2c2ccc(Br)cc2)C(=O)O1,inactive: -4.08%,
COC(=O)C1=C[C@@H]([C@@H](C)[C@H](OC)c2ccccc2Br)[C@@H]2OCCC[C@H]12,inactive: 5.48%,
COC(=O)N[C@H](C(C(=O)OC)=C(C)NCc1ccccc1)c1cccs1,inactive: 4.76%,
COc1cccc([C@@H]2Oc3ccc(Br)cc3C(=O)[C@@H]2OC(=O)N[C@H]2CCCc3ccccc32)c1,,"inconclusive: 2.39 µM [inhibitor, single point]"
COc1ccc2c(c1)O[C@H](c1ccc3c(c1)OCO3)[C@@H](OC(=O)Nc1ccc(C)c(Br)c1)C2=O,inactive: -2.83%,
CCOC(=O)NN=C1C[C@@H](O)[C@@H](O)[C@@H]2[C@H]3C(=O)N(c4cccc(Oc5ccccc5)c4)C(=O)[C@@H]3CC[C@@H]12,inactive: -1.24%,
COC(=O)[C@H]1[C@@H](c2ccccc2)NC(=O)N(Cc2ccccc2)[C@@H]1C,inactive: 3.88%,
CCOC(=O)CCN1C(=O)[C@@H]2[C@H]3[C@H](O)[C@H](O)CC(=NNC(=O)OCc4ccc(OC)cc4)[C@H]3CC[C@H]2C1=O,,"inconclusive: 1.31 µM [inhibitor, partial curve, poor fit]"
COC(=O)C1=C(C)N(Cc2ccccc2)C(=O)N[C@H]1c1ccc(Br)cc1,inactive: 0.386%,
CCCCc1nc2c(c3c1C[C@H](C)OC3)CN(S(=O)(=O)c1ccc3c(c1)OCCN3C)CC2,,"inconclusive: 4.78 µM [inhibitor, single point]"
C#CCCCON=C1C[C@@H](O)[C@@H](O)[C@@H]2[C@H]3C(=O)N(C(C)(C)C)C(=O)[C@@H]3CC[C@H]12,inactive: -4.72%,
COC(=O)CCC(=O)OC1(C)C(=O)C2=CN(Cc3ccc4c(c3)OCO4)C(c3ccc(OC)cc3)=CC2=C(Br)C1=O (stereo not given),inactive: -5.18%,
COC(=O)C1=C(C(=O)OC)[C@@H]2N(C)c3ccc(OC)cc3[C@@]23C[C@@H](C(=O)OC)N(S(=O)(=O)c2cccs2)C3=N1,,"inconclusive: 1.9 µM [inhibitor, single point]"

SMILES,"activity change, negative = inhibition",Potency
CCOC(=O)CN1C(=O)N[C@@H](c2ccco2)C(C(C)=O)=C1C,inactive: -3.47%,
CC1(OC(=O)C2CCCC2)C(=O)C=C2C=C(c3ccsc3)OC=C2C1=O (stereo not given),inactive: -2.39%,
COC(=O)[C@H]1O[C@@H](c2cc(OC)c(C)c(OC)c2OCc2ccccc2)[C@H](C)[C@H]2O[C@@]12C,,inactive
COC(=O)CCC(=O)OC1(C)C(=O)C=C2C=C(C3CC3)N(CCN3CCOCC3)C=C2C1=O (stereo not given),inactive: -4.92%,
O=C(NC(CC1=CCCCC1)c1ccccc1)C(F)(F)F (stereo not given),inactive: 0.466%,
CCN1C(=O)N[C@@H](c2ccco2)C(C(=O)OC)=C1C,inactive: 3.79%,
COC(=O)N[C@@H](C=Cc1ccccc1)C[N+](=O)[O-],,"inconclusive: 4.26 µM [inhibitor, single point]"
CC#CCN1c2ccccc2[C@]23C[C@@H](C(=O)OC)N(C(C)=O)C2=NC(C(=O)OC)=C(C(=O)OC)[C@H]13,,"inconclusive: 0.675 µM [inhibitor, partial curve, poor fit]"
COC(=O)CCCC1=CC2=C(c3ccccc3)C(=O)C(C)(OC(=O)C3CCCC3)C(=O)C2=CN1CC(C)C (stereo not given),inactive: -14.7%,
COc1ccc(-c2ccc3c(n2)CCCN3CC(O)CN2CCCc3nc(C)c(C)cc32)cc1 (stereo not given),inactive: -4.81%,
COC(=O)CCCC1=CC2=CC(=O)C(C)(OC(=O)c3cccs3)C(=O)C2=CN1CC(C)C (stereo not given),,inactive
COc1cccc([C@H]2Oc3ccc(OC)cc3C(=NOCC[C@@H]3C=C[C@H](OC(C)=O)[C@@H](COC(C)=O)O3)[C@H]2O)c1,inactive: -2.09%,
C/C=C/C1=Cc2ccccc2C(CC(=O)OC)N1C(=O)OC (stereo not given),,"inconclusive: 4.78 µM [inhibitor, single point]"
CCCCC1=CC2=CC(=O)C(C)(OC(=O)CC)C(=O)C2=CN1Cc1ccc(OC)cc1 (stereo not given),inactive: -5.47%,
CCCCS(=O)(=O)N1CCc2nc(COc3ccccc3)c3c(c2C1)CO[C@@H](C)C3,inactive: -7.2%,
COC(=O)C1=C(C(=O)OC)[C@@H]2N(C)c3ccccc3[C@@]23C[C@@H](CO)N(C(=O)c2ccco2)C3=N1,inactive: -0.246%,
COc1ccc2c(c1)O[C@@H](c1ccc3c(c1)OCO3)[C@H](OC(=O)Nc1ccc(OC(F)F)cc1)C2=O,inactive: -9.47%,
COC(=O)C1=C(C(=O)OC)[C@@H]2N(C)c3ccccc3[C@@]23C[C@@H](C(=O)OC)N(C(=O)c2cc(C)oc2C)C3=N1,,"inconclusive: 294 nM [inhibitor, partial curve, poor fit] and inactive"
CCCCC1=CC2=C(c3ccco3)C(=O)C(C)(OC(=O)c3ccc(OC)cc3)C(=O)C2=CN1CCc1ccccn1 (stereo not given),,"inconclusive: 1.35 µM [inhibitor, partial curve] and inconclusive: 1.9 µM [inhibitor, single point]"
CCCCC1=CC2=CC(=O)C(C)(OC(=O)CC)C(=O)C2=CN1c1ccc(OC)cc1 (stereo not given),inactive: -0.823%,
